Some of the results follow.
T1: UNK ZnF1-3 (human, UniProt Q9C0B0 31-174)
T1 sequence: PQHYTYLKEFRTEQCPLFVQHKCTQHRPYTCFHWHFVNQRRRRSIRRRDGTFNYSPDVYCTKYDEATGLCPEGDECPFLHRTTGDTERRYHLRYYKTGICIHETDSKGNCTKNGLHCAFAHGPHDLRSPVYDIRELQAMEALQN

B1: chr1:94914716:94914717:-_ENSMUSG00000014602_ENSMUST00000171796|mus_mus|FALSE|FALSE (ssRNA)
RNA: GGGAGUUCUACAGUCCGACGAUCAAACAGAACACAGUCUUAUAGUUAAUGUCUCAGAGGACUGUUUCAACGCCACUAACUAAUGUAUAUUAAUUAUAAGUCUGUCUAUGCUUAAAAAAAUAUUAGAACAGCGGCAAUACCCUGCAACAGAGGAUUGAGCAUCA
B2: chr9:72466633:72466634:+_ENSMUSG00000037674_ENSMUST00000093820|mus_mus|motif|central (ssRNA)
RNA: GGGAGUUCUACAGUCCGACGAUCCUGAUAUGACUGUCCAGGUACAGCAAAAGCAUGAGGUUUCCUGAAACGAUCUUCGGCGGGUUCCUGAUAGCUUGGGAGAAUGCCAUGACCAGAAACCGAUGAAUUACCAACCCCACCAUACAACAGAGGAUUGAGCAUCA
B3: 26785022_26785142_3734_CDS_ENSMUSG00000024921_ENSMUST00000025862|mouse|control|control (ssRNA)
RNA: GGGAGUUCUACAGUCCGACGAUCCAGGAAGGCCCUCCGCUCGUGGCUGGAUGACUUCUGGUCAAACAUGCCUGCUUGGAUAACCUUCUGAUCCACGUUCAGCUUGUACUUGGCAGCCGCGAGAAUCUUUUCCUCCACACUGUUCAACAGAGGAUUGAGCAUCA
B4: chr7:151048522:151048523:+_ENSG00000013374_ENST00000566856|hu_mus|hu_hu_hu_mus_True|28_28 (ssRNA)
RNA: GGGAGUUCUACAGUCCGACGAUCCUGUUUCUUAUUUAUUACGAUCUUGAUGUAAUUUUCUUGAAAUCCGAAAGUUUCAGCUAUUUGACACCUCAGGUCUCUACCAGUGAUGUGCAAGCGGGUCUCCAACAAGCUUUUCUUAUCCAACAGAGGAUUGAGCAUCA
B5: chr18:48606039:48606040:+_ENSG00000141646_ENST00000342988|hu_mus|FALSE|FALSE (ssRNA)
RNA: GGGAGUUCUACAGUCCGACGAUCAGUAUACAUGUGUGUCUGUGGUACAGUCAAUGUGUCUUAACUCCUCCACUUCAAUCUCUACAAAGUCACCGCCAAGUGAUCAAGGAUGGCAAACACAGGGCUUAUAACCAAAAGGUAUAACAACAGAGGAUUGAGCAUCA
B6: chr4:39779992:39779993:+_ENSG00000078140_ENST00000510719|hu_mus|motif|central (ssRNA)
RNA: GGGAGUUCUACAGUCCGACGAUCACUCAGAAGCAGUUCUGUUGCAGUCUCUACAUCCCAUGAUUUUGAAGACAAGGCCACGGUUACUGCGUUCCUAUCAAAACCCAUAGCACAGAGGUUUUCUAUUUUUUUGGUGUAUUCUGGCAACAGAGGAUUGAGCAUCA
B7: chr1:39494564:39494565:+_ENSG00000168653_ENST00000372967|hu_hu|hu_hu_hu_mus_True|98_98 (ssRNA)
RNA: GGGAGUUCUACAGUCCGACGAUCAUGCAUUCGCCUCAUCGUUUUCUACCGAAGCAAGCACUCUUCGAAGUCAUCGAACUCUAUCUUGCACUCCUUUUUCGCCCGGGUCCCACCGAUCCCGUGUGCACACUCUAUCCACUCUUUCAACAGAGGAUUGAGCAUCA
B8: 42638195_42638315_1313_CDS_ENSMUSG00000025184_ENSMUST00000026188|mouse|control|control (ssRNA)
RNA: GGGAGUUCUACAGUCCGACGAUCUGCACUCAUUUCUAUAUAAUCUGAGAAAUUUCUCAUGUUGCCACUACUCUCACCAGAUUCUCCAACUGCACCUGUACAAGAGCUGCCUUCAGUUACAGGGUCACAAGCUGUACCUGCAAUCAACAGAGGAUUGAGCAUCA
B9: 125499526_125499646_756_3pUTR_ENSMUSG00000091337_ENSMUST00000164756|mouse|control|control (ssRNA)
RNA: GGGAGUUCUACAGUCCGACGAUCCUGUGAGACCAAAGAGGAACGAUUUGGUCUUUUUCUCCUCGCGAUUCUCAGGUUUAACACUCCUCCUUCCUCGAUUCUCCUUUUCCACAAUGCAUGGUCAUUCACUGUCCCGUCUUCUAUCAACAGAGGAUUGAGCAUCA
B10: chr3:182775190:182775191:-_ENSG00000078070_ENST00000265594|hu_hu|FALSE|FALSE (ssRNA)
RNA: GGGAGUUCUACAGUCCGACGAUCCUGCACACUACAGUCUCUUUCAAACAAGUACACAGCAUUGCCAUGGUGAUCACCAAACACCUGGACUUCUACAUGCCUCGGUGUGUCUACAAACUUCUCGAUCAGCAUAGCAUCAUCAUUCAACAGAGGAUUGAGCAUCA
B11: chr2:5814250:5814251:-_ENSMUSG00000025816_ENSMUST00000102981|mus_hu|FALSE|FALSE (ssRNA)
RNA: GGGAGUUCUACAGUCCGACGAUCUUCCUUUCCGGUUUCUGAAUUUCUGGUAGAACUGCACAGAAUGGUUUGAUAACUUCUAAAAAUUUGAUGCCCAUGGCUGCUGCUGGGGAGGCCCAGGGGGAAACCGCGGCCUCGGCGCUGCAACAGAGGAUUGAGCAUCA
B12: chr4:144460044:144460045:+_ENSG00000153147_ENST00000283131|hu_mus|hu_hu_hu_mus_False|1_28 (ssRNA)
RNA: GGGAGUUCUACAGUCCGACGAUCACGGUCCAUAGCCUGAAGAUCAACUUGCGGAUUCCAAUCUGAGUCAUAUAAAAUGACUACAUCAGCAGUUGCAAGAUUGAUGCCAAGACCACCAGCACGUGUGCUUAGCAUAAAAACAAACAACAGAGGAUUGAGCAUCA
B13: chr12:16048344:16048345:+_ENSG00000023734_ENST00000419869|hu_hu|hu_hu_hu_mus_True|8_78 (ssRNA)
RNA: GGGAGUUCUACAGUCCGACGAUCAGAUCGUCCAUAAGUAAUAACCAAAAUCUCUCCCUCAGGAAUAUACUCCAUGCUGCUAACAGACAUAUUAAAAUUCAGAGAUUUCACUUCUGUCAUUGUGGCAUGAUCCCAAAGCCGAACCAACAGAGGAUUGAGCAUCA
B14: chr7:56126341:56126342:+_ENSG00000146731_ENST00000540286|hu_mus|hu_hu_hu_mus_True|1_108 (ssRNA)
RNA: GGGAGUUCUACAGUCCGACGAUCCAUAUUUCUCCUUUUGGCUCUGCGCAGAGCUACGAUCCCUUCUUUCGCAAGGGCAUCUAAGGAAAAGGGGUCAAUCCCCUUUUGAUUAAUAACGACAAAUCCUUUAUCUGAGUCGCCACACAACAGAGGAUUGAGCAUCA
B15: chr1:163117127:163117128:-_ENSG00000143248_ENST00000313961|hu_mus|hu_hu_hu_mus_False|38_48 (ssRNA)
RNA: GGGAGUUCUACAGUCCGACGAUCUGCUACAAAGGAUGUAACUCAACUCACAGGGCAACUUUUGGAAGCCUGACCAGAUGACUACUUGAUUAACUCCUGAUAAAACUCAGAGCGCACAAAGCGGGGCAGAGAAUCCUUCUCCAUCAACAGAGGAUUGAGCAUCA
B16: 113315486_113315606_1080_CDS_ENSG00000125630_ENST00000417433|human|control|control (ssRNA)
RNA: GGGAGUUCUACAGUCCGACGAUCAAGGUCUAUGCCCAUUGUAAAAAUCCUCAUCAAAUUGUCAGUGUUCAUGGAAACACUGGUCUUCUGAGCCUUCUUAUCAAAAGCUAUUUUAAUAGACACUAACCAACCUUCCAGUUUUUCCAACAGAGGAUUGAGCAUCA
B17: chr21:38528988:38528989:+_ENSG00000182670_ENST00000355666|hu_mus|FALSE|FALSE (ssRNA)
RNA: GGGAGUUCUACAGUCCGACGAUCGAAAUCAAGCUCCUUGAGAGAUGCUCCGUACCGAGUGAAAAAGGGUCCUAUGGCAUCCAAGCCAAAACUAUUCAGUCUCUGGAUCCAGGGAGCCAACUUGGGGUCUAACUCUUUAAGCUCCAACAGAGGAUUGAGCAUCA
B18: chr4:48472875:48472876:-_ENSMUSG00000028345_ENSMUST00000030030|mus_hu|motif|central (ssRNA)
RNA: GGGAGUUCUACAGUCCGACGAUCACUAUUUAGCCUAGAGCCAUCUUCAAGGGUCUCUGUUACAAAUUUCCUUAUCAUUUCGGUCCAACUGCAAUCCUUCUGCAAAGUUGACGCAUUUGCCAGGGAGACCAUGAUAUCAGACAGCAACAGAGGAUUGAGCAUCA
B19: chr8:104444897:104444898:+_ENSG00000164934_ENST00000297579|hu_hu|motif|central (ssRNA)
RNA: GGGAGUUCUACAGUCCGACGAUCUGCUGUAAAAAUGAAAGCUUCCAUAGGGUUCCAACAGAUUGUAUUUGUUCUCAUAUCGGAGAUAACCUUUUUCAAAGGAGUAGCUUGCCUCAUAUCGUACAGUACUAUAUUCCUGUCAGACAACAGAGGAUUGAGCAUCA
B20: chr13:59231463:59231464:+_ENSMUSG00000055254_ENSMUST00000079828|mus_mus|motif|central (ssRNA)
RNA: GGGAGUUCUACAGUCCGACGAUCAAAUGGAAACACUGGUCUCCCUCGGUCUAAAUGACUACCCAAAUACCUGUAAAUUUCGGUAUAAAUUUACCCUCUCUUUUCGGAAAACCAAUGACCAUGUGCGGGCGCAAAUCUCCAGGCCAACAGAGGAUUGAGCAUCA
B21: chr11:4127340:4127341:+_ENSG00000167325_ENST00000300738|hu_mus|hu_hu_hu_mus_False|58_78 (ssRNA)
RNA: GGGAGUUCUACAGUCCGACGAUCGGCAUAGUCAGGGUGCUUCGUGGUCAAGGUCGCAGCUGUUUCAGCAGCCAGGGUAUCUAGUUCCACUGUGGUGACCCCACUAUAUAGGCCUUGGAUUACUUUCAUGGUGAUCUGAGCAGGCAACAGAGGAUUGAGCAUCA
B22: chr10:41618152:41618153:+_ENSMUSG00000038332_ENSMUST00000041438|mus_hu|motif|central (ssRNA)
RNA: GGGAGUUCUACAGUCCGACGAUCCGGCAUCUCAUCCACACUGUGAUUGCCAUUUGUAAUGUCACAGAUGCAGUAGUUGCGGACAGAAGGAGGUCUGAAUGUGUGGCCACCAUCACAAUGAAUUUCUGGACUGAUUCCACAGCCCAACAGAGGAUUGAGCAUCA

Target: T1, UNK ZnF1-3
Assay: nsRBNS (natural sequence RNA bind-n-seq); RBNS binding buffer (assumed for nsRBNS): 25 mM Tris pH 7.5, 150 mM KCl, 3 mM MgCl2, 0.01% Triton X-100, 500 ug/ml BSA, 20 U/ml SUPERase-In, 4 C; UNK is unkempt and MSI1 is Musashi-1; names of the RNAs are library labels; protein concentration not given here; high values mean tight binding

**Q.** With B1 as the binder, how does the binding signal read?
**A.** 1.07 enrichment R

**Q.** With B2 as the binder, how does the binding signal read?
**A.** 1.21 enrichment R

**Q.** For B3, which binding signal is on record?
**A.** 0.568 enrichment R

**Q.** For B4, which binding signal is on record?
**A.** 0.629 enrichment R

**Q.** For B5, which binding signal is on record?
**A.** 1.49 enrichment R

**Q.** With B6 as the binder, how does the binding signal read?
**A.** 0.657 enrichment R

**Q.** With B7 as the binder, how does the binding signal read?
**A.** 0.73 enrichment R

**Q.** For B8, which binding signal is on record?
**A.** 1.32 enrichment R

**Q.** With B9 as the binder, how does the binding signal read?
**A.** 0.473 enrichment R

**Q.** Which binding signal does the source give for B10 here?
**A.** 1.12 enrichment R

**Q.** B11 was tested. Which binding signal did it give?
**A.** 1.24 enrichment R

**Q.** With B12 as the binder, how does the binding signal read?
**A.** 0.948 enrichment R

**Q.** With B13 as the binder, how does the binding signal read?
**A.** 1.27 enrichment R

**Q.** For B14, which binding signal is on record?
**A.** 0.797 enrichment R

**Q.** How did the binding signal turn out when B15 was run?
**A.** 1.16 enrichment R

**Q.** For B16, which binding signal is on record?
**A.** 0.863 enrichment R

**Q.** With B17 as the binder, how does the binding signal read?
**A.** 0.956 enrichment R

**Q.** For B18, which binding signal is on record?
**A.** 0.816 enrichment R

**Q.** With B19 as the binder, how does the binding signal read?
**A.** 1.52 enrichment R

**Q.** Which binding signal does the source give for B20 here?
**A.** 0.872 enrichment R

**Q.** For B21, which binding signal is on record?
**A.** 0.986 enrichment R

**Q.** For B22, which binding signal is on record?
**A.** 1.19 enrichment R

Reference: article PMC12136788
